From the supplement of paper PMC3334620
Over roughly 33,000 sequences, “E-score (-0.5 to 0.5)” has its median near -0.04; the highest 2% begin near 0.36. Some of the results follow.

Biological target: T1, Hmlalpha2 (UniProt P0CY09)
T1 sequence: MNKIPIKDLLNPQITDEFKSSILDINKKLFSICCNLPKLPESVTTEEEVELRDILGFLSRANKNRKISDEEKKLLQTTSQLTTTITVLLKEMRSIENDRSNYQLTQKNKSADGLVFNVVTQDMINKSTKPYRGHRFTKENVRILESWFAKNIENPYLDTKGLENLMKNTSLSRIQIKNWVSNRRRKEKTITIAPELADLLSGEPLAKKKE
Assay: PBM E-score (8-mer binding enrichment) (E-score (-0.5 to 0.5)); higher = stronger / more preferred TF binding; most listed sequences are background and not binding sites
Conditions: protein concentration: 200 nM; construct: GST-full length
Method in brief: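 Detection of bound protein used fluorescent anti-GST, with scans normalised by masliner. The proteins were GST-tagged yeast transcription factors applied at about 100-200 nM to universal all-10-mer Agilent arrays made double-stranded by primer extension. Each ungapped eight-base word, pooled with its reverse complement, was scored with an E-score from the Universal PBM Analysis Suite.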

| Sequence | PBM E-score |
| --- | --- |
| AAAGTGTA | 0.177 |
| TTGAACAA | 0.259 |
| TCGCTTAA | 0.0673 |
| AGACCGTA | -0.158 |
| CTCACTTA | 0.0199 |
| ATGACGCG | 0.26 |
| CACGTGGA | 0.104 |
| AACTGTCC | -0.223 |
| CGCCCTAG | -0.334 |
| TGATTGAA | 0.222 |
| CATGTTTC | 0.333 |
| CTCGTAAA | 0.266 |
| ATTTATCA | 0.179 |
| AGGCCCGA | -0.35 |
| ACGAAAGA | -0.0344 |
| ATAACGAG | 0.205 |
| GGACTCAA | -0.168 |
| GGAACGCA | -0.155 |
| CACTTAGA | 0.119 |
| CGTTACAA | 0.318 |
| GTAACAGA | 0.245 |
| CCCGCGAC | -0.197 |
| AGTTAGCG | 0.0775 |
| CAAGCCCC | -0.183 |

| Sequence | PBM E-score |
| --- | --- |
| GAGCGGCA | -0.305 |
| ATATAAAT | 0.125 |
| CAGTGACA | 0.118 |
| ACTAGCTG | -0.0534 |
| AACCCAAA | 0.15 |
| ATAGAGAG | -0.252 |
| TGTTGCAA | 0.321 |
| TATGAGCA | -0.136 |
| CACCGAGC | -0.00628 |
| GGTATACC | -0.128 |
| CCATGCAC | -0.0817 |
| AGTGTTCC | -0.0674 |
| GGGGACCA | -0.175 |
| ACTTTTCC | -0.0657 |
| CGTTATTC | 0.155 |
| GCTGAGAA | -0.247 |
| AGCATGTA | 0.458 |
| CTTATGAC | 0.0464 |
| GAATTCGA | -0.0613 |
| AATCCTGT | 0.135 |
| AGCGGTGG | -0.307 |
| CAAGCTCA | -0.0894 |
| CGATTATA | 0.00421 |
| AAGTCCTC | -0.282 |

| Sequence | PBM E-score |
| --- | --- |
| AAAGCGGC | -0.0147 |
| CGAAGTTA | 0.0538 |
| CTCTCTTA | -0.0598 |
| AGTGCTCA | -0.0699 |
| AGACGTGG | -0.0301 |
| ACTTTAAA | 0.201 |
| CGAATAAC | 0.133 |
| ACCGAGGT | -0.247 |
| GAGCCAGC | -0.0829 |
| GTGTTCAA | 0.333 |
| CCTCACCG | -0.183 |
| CCCCCGAC | -0.195 |
| CGAGATAC | 0.133 |
| GTGGTCAA | -0.0351 |
| GAAATACA | 0.346 |
| AAGAAGAG | -0.106 |
| AGTGGGCA | -0.0948 |
| AGTCCACC | -0.0688 |
| CTCTGGGA | -0.367 |
| CGTGTCTA | 0.305 |
| GCGTGGAC | -0.13 |
| ACCATGGA | -0.217 |
| TGTACTAA | 0.259 |
| GCGACGCA | 0.06 |

| Sequence | PBM E-score |
| --- | --- |
| ACGCGAAC | 0.0815 |
| CGGGCTAC | -0.086 |
| AGCTTTTA | 0.136 |
| CTAACTGA | -0.0961 |
| GATCAATA | 0.0409 |
| CGTCCACG | -0.073 |
| ATAATTCG | 0.101 |
| CAAGTAGC | 0.0879 |
| CTCAGCTA | -0.149 |
| AGAAACTA | -0.00717 |
| TATGAGAA | -0.0916 |
| AGGAACAT | 0.288 |
| CGGTGCAA | -0.0423 |
| TGCCGCAA | -0.162 |
| ACCAAGTC | -0.107 |
| CTCACCAG | -0.268 |
| AATTCCGT | 0.0984 |
| CCCCGACA | -0.0915 |
| CCTCACGC | 0.0491 |
| ACGTACCT | 0.0217 |
| TGAGCACA | 0.116 |
| CAATTCAC | 0.222 |
